In PubChem BioAssay AID1240 (Sanford-Burnham Center for Chemical Genomics, 2008) one finds displacement data, which are given here for 72 compounds.

The whole screen tested about 50,000 compounds, of which about 800 (1.6%) showed an effect of 50% or more. Some of the results follow.

The assay deals with Bcl-2-like protein 10 (Homo sapiens) (UniProt Q9HD36). Briefly: TR3 peptide-Bcl-B binding displacers, biochemical primary FP assay, phenotype converters (AID 1240).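 Also: 0% = Bcl-B with tracer peptide and DMSO and 100% = tracer peptide lacking Bcl-B.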 The settings on record: GST-Bcl-B / FITC-TR3 peptide fluorescence polarization; stronger effect = higher value; compound at 3.75 mg/L. In general terms: Fluorescence polarisation rises when a labelled molecule tumbles more slowly, as on binding a larger partner.
Sequence of UniProt Q9HD36 (Q9HD36 whole entry, looked up): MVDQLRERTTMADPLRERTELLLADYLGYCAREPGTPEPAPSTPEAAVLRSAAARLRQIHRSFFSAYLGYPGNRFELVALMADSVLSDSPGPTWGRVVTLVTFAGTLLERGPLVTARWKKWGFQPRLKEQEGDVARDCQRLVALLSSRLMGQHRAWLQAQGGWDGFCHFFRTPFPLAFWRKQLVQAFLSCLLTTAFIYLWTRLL
In the case of `COc1cc(/C=N/O)ccc1OCc1ccc(Cl)cc1`, the displacement is -4.6%.

As for `Cc1nc2ccccn2c1C(=O)NC1CCCCC1`, the displacement was -7.6%.

For the compound `Cc1ccc(C(=O)NCCOc2ccc(Cl)cc2)cc1`, the displacement is -0.2%.

Consider `CC(=O)Nc1ccccc1NC(=O)c1ccccc1[N+](=O)[O-]`, for which the displacement was -6.6%.

Turning to `O=c1c2c(nc3cc(-c4cccc(F)c4)[nH]n13)CCS2`, the displacement came to 9.2%.

In the case of `Cc1[nH]n(-c2ccccc2)c(=S)c1C=Nc1ccccc1O`, the displacement was 5.5%.

Regarding `O=C(/C=C/c1ccco1)N(Cc1ccccc1)Cc1ccccc1`, the displacement was -12.2%.

With `COc1ccc(OC(C)C(=O)Nc2ccc(N(C)C)cc2)cc1` (configuration not stated), the displacement came to 9.1%.

With `COC(=O)C1=C(C)N(C)C(C)=C(C(=O)OC)C1c1ccccc1OCc1ccccc1`, the displacement was -0.9%.

`COc1ccc(/C=C(\NC(=O)c2ccccc2)C(=O)Nc2ccc(C)cc2)cc1OC`: the displacement was 0%.

With `Cc1ccc(C(=O)N2CCN(c3ccccc3)CC2)cc1C`, the displacement came out at 12.7%.

Take `O=C(Nc1ccc2c(c1)OCO2)c1cnn2c(C(F)(F)F)cc(-c3cccs3)nc12`: the displacement worked out at 11.2%.

For the compound `Cc1cc(C(=O)Nc2cccc(/C=C/C(=O)O)c2)c(C)o1`, the displacement is -2.5%.

For `COC(=O)CN(C#N)c1nc(SC)nc(N(C)C)n1`, the displacement is -10.3%.

Consider `COc1ccc(/C=C2\SC(=S)N(CCCC(=O)Nc3ncc(Cc4cccc([N+](=O)[O-])c4)s3)C2=O)cc1OC`, for which the displacement turned out to be 59%.

Regarding `CSc1ccc(C=NN2CCN(Cc3ccccc3Cl)CC2)cc1`, the displacement was -8%.

For the compound `CC(C)(C)c1ccc(C(=O)Nc2ccc(OC(F)(F)F)cc2)cc1`, the displacement was -5.9%.

Regarding `N#CSCCCCCCOc1cccc(Cl)c1`, the displacement is -12%.

Consider `CCCOC(=O)c1ccc(NC(=O)CCC(=O)OC)cc1`, for which the displacement is 5.5%.

In the case of `Cc1cc(=O)oc2cc(OCc3ccc(Cl)cc3Cl)ccc12`, the displacement was 5.7%.

Regarding `O=C1OC(COc2ccccc2)CN1c1ccc(Cl)c(Cl)c1` (configuration not stated), the displacement turned out to be 0.5%.

As to `O=C1NC(=O)N(c2ccc(Cl)cc2)C(=O)/C1=C/c1ccc(O)c(Cl)c1`, the displacement amounted to 2.8%.

In the case of `COc1cc(-c2nc3sc4c(c3c(=O)[nH]2)CCCC4)ccc1C`, the displacement was -20.6%.

Consider `O=[N+]([O-])c1cc(NS(=O)(=O)Cc2ccccc2)ccc1F`, for which the displacement is 11%.

For `COc1ccc(-c2[nH]ncc2C=O)cc1`, the displacement was -9.7%.

Consider `O=C(N/N=C/c1ccccc1OCc1ccccc1)c1ccccc1O`, for which the displacement worked out at 6%.

On to `O=C1NC(=S)N(c2ccc(Br)cc2)C(=O)/C1=C/c1ccc(O)c(Cl)c1`, for which the displacement stood at 10.7%.

`CC(=O)Nc1ccc(N2C(=O)CSC23C(=O)Nc2ccccc23)cc1` (configuration not stated): the displacement is 8.3%.

In the case of `CC(=O)Nc1ccc(-c2nc(-c3ccccc3)c3cc(NC(C)=O)ccc3n2)cc1`, the displacement is 6.7%.

Consider `Cc1ccc(S(=O)(=O)Nc2ccc(S(=O)(=O)NC(=O)C3CCCCC3)cc2)cc1`, for which the displacement was determined as 12.7%.

Consider `COc1ccc(Cl)cc1C(=O)Nc1nc2ccc(S(C)(=O)=O)cc2s1`, for which the displacement worked out at 3.1%.

For `COc1ccc(C(=O)NC2CC2)cc1OC`, the displacement is 8.4%.

Take `CC(C)c1ccc(OC(=O)CCN2C(=O)c3ccccc3C2=O)cc1`: the displacement turned out to be 4.4%.

Turning to `COc1cc(-c2ccccc2)nc(N)n1`, the displacement is -5.4%.

For `COc1ccc(C(=O)N/C(=C\c2ccc(Cl)cc2)C(=O)NCCN2CCOCC2)cc1`, the displacement was found to be 8%.

Take `COc1ccc(CNS(=O)(=O)c2cccc([N+](=O)[O-])c2)cc1`: the displacement is -1.6%.

Regarding `COc1ccc(C/C(N)=N/OC(=O)c2ccccc2Cl)cc1`, the displacement is -0.1%.

Take `CCOC(=O)C(=CC1=C/C(=C/N(C)C)C(=O)O1)C(=O)OCC`: the displacement is -13.2%.

Consider `CCOC(=O)c1ccc(NC2=NC3(CCCCC3)N=C(N)N2)cc1`, for which the displacement is -7.7%.

Regarding `CCOc1ccc(N2Cc3ccccc3C2)cc1`, the displacement was 1.9%.

On to `O=C1CCCC2=C1C(c1ccc(F)cc1)Nc1ccc(C(=O)c3ccccc3)cc1N2` (configuration not stated), for which the displacement was -7.2%.

In the case of `O=S(=O)(c1cccs1)n1cnc2ccccc21`, the displacement is -1.7%.

On to `O=C(NCCO)c1cccc([N+](=O)[O-])c1`, for which the displacement came to 0.3%.

`CC1=NN(C(=O)c2cccc(Cl)c2)C(O)(c2cccnc2)C1` (configuration not stated): the displacement was -11.5%.

Take `COc1ccc(N2C(=O)CC(N3CCN(c4ccccc4F)CC3)C2=O)cc1` (configuration not stated): the displacement is -0.5%.

Take `CCN(CC)c1ccc(NS(=O)(=O)c2ccc([N+](=O)[O-])cc2)cc1`: the displacement was -2.3%.

Regarding `Cc1ccc(/C=N/c2nc3ccc(Br)cc3s2)c(O)c1`, the displacement is -2.9%.

Turning to `CSc1ccc(C2NC(=O)c3ccccc3N2)cc1` (configuration not stated), the displacement is 12.2%.

On to `O=C(Nc1ccc2nn(-c3ccc(F)cc3)nc2c1)c1ccncc1`, for which the displacement came out at 3%.

As for `O=C1C(Nc2ccc(Cl)cc2)=C(N2CCOCC2)C(=O)c2ccccc21`, the displacement amounted to 7.3%.

Take `N/C(=N\OC(=O)c1ccc(Br)cc1)c1ccc(Cl)cc1`: the displacement amounted to 2.2%.

As to `COc1cc(C2C3=C(CC(C)(C)CC3=O)OC3=C2C(=O)CC(C)(C)C3)cc2sc(=O)oc12`, the displacement was -8%.

`COc1ccc(-c2cc(C(=O)NC34CC5CC(CC(C5)C3)C4)c3ccccc3n2)cc1OC`: the displacement was -5.1%.

On to `O=C(N/N=C/c1ccc([N+](=O)[O-])c(O)c1)c1cccc(F)c1`, for which the displacement is -7.8%.

Consider `CCOc1cc(C=C2C(=O)NC(=O)NC2=O)ccc1OCc1ccccc1`, for which the displacement was 33.7%.

As for `CCOC(=O)c1sc(NC(=O)CCCOc2ccc(Cl)cc2Cl)nc1C`, the displacement is 13.7%.

`Cc1cccc(C(=O)Nc2ccccc2)c1`: the displacement was -4.7%.

Take `CC(=O)CC(=O)NC12CC3CC(CC(C3)C1)C2`: the displacement was -13.2%.

As to `CC1CCN(C(=O)c2ccccc2)CC1`, the displacement was found to be 6.7%.

Turning to `CC(C)c1ccc(/C=N\NC(=O)c2cc(C(C)(C)C)[nH]n2)cc1`, the displacement is -10.7%.

With `COc1ccc(NC2CC(O)C(CO)O2)c([N+](=O)[O-])c1` (configuration not stated), the displacement was -3.1%.

For the compound `C/C(=N\NC(=O)COc1ccccc1C)c1ccc(Br)cc1`, the displacement came to 3.9%.

For the compound `NS(=O)(=O)c1ccc(CCNC(=S)NC(=O)c2cccs2)cc1`, the displacement was -6.3%.

With `CCOC(=O)c1c(C)oc2c1C(=O)c1ccccc1C2=O`, the displacement was -9.7%.

Regarding `COc1cc(NC(=O)c2cccc(C)c2)cc(OC)c1`, the displacement is -13%.

Take `Cc1ccc(C(C)C)c(COCC(O)CN2CC(C)CC(C)C2)c1` (configuration not stated): the displacement is -4%.

Consider `O=C(Nc1ccc2nn(-c3ccc(F)cc3)nc2c1)c1ccc2c(c1)OCCO2`, for which the displacement was -0.4%.

In the case of `COc1ccc(C(CC(=O)O)CC(=O)O)cc1OC`, the displacement was -6.2%.

For `COc1ccccc1NC(=O)CN(c1ccc(C)cc1)S(=O)(=O)c1ccc(SC)cc1`, the displacement amounted to 10.6%.

`CC1CCCC(C)N1C(=O)COc1ccc2ccccc2c1` (configuration not stated): the displacement came out at 9.2%.

As for `COc1ccc(NC(=O)c2c(NC(=O)c3ccc([N+](=O)[O-])cc3)sc3c2CCCC3)cc1`, the displacement was -6.3%.

On to `Cc1ccc(OCC(=O)NC23CC4CC(CC(C4)C2)C3)c(Br)c1`, for which the displacement is -3.1%.
